Assay results: publication PMC4336329 (PLoS ONE, 2015)
Among all 310,000 compounds or so, about 14,000 (4.5%) showed an effect of 50% or more. Effects have a minus sign here. Some of the results follow.

What follows are compounds tested against human ether-à-go-go-related gene (hERG) potassium channel (human, UniProt Q12809) (assay: primary screen, population patch clamp on CHO cells stably expressing hERG).
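Further: peak tail current of the secondary pulse compared with the same well before compound.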

Sequence of human ether-à-go-go-related gene (hERG) potassium channel (Q12809 whole entry, looked up): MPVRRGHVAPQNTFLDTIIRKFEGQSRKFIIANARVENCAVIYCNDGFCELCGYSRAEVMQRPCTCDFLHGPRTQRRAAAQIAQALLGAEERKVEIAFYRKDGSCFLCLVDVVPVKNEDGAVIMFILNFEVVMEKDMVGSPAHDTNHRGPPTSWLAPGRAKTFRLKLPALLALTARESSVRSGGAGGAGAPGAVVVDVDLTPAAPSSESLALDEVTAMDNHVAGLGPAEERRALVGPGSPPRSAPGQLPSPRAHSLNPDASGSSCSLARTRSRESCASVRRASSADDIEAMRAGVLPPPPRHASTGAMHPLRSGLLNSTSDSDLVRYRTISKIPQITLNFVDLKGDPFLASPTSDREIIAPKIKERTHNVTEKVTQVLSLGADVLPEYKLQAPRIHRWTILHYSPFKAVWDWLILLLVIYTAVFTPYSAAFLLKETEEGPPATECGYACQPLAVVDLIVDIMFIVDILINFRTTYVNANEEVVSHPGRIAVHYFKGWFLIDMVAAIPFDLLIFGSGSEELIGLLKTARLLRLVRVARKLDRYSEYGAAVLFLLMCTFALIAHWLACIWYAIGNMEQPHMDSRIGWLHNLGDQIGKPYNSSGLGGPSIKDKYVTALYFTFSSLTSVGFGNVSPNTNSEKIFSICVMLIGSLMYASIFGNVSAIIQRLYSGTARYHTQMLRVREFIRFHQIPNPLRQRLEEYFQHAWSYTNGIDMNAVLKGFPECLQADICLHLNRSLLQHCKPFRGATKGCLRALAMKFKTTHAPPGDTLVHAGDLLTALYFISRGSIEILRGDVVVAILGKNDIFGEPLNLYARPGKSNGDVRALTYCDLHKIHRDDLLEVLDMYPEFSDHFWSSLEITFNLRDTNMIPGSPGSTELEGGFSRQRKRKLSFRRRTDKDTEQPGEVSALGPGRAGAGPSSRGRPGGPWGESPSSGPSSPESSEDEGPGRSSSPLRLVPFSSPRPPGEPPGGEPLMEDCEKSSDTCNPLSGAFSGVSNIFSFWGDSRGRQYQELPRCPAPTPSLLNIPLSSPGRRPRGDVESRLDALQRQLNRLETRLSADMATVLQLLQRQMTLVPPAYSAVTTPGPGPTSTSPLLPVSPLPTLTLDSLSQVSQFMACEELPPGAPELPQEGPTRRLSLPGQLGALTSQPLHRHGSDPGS

| SMILES | hERG current change (%, negative = inhibition) at 10uM [%] |
| --- | --- |
| CC1CC(C)CN(c2ncnc3c2cnn3Cc2ccc(Cl)cc2)C1 (centres unmarked) | -3.26 |
| Cc1cc(S(=O)(=O)N(Cc2ccccn2)Cc2ccco2)ccc1-n1cnnn1 | -20.5 |
| CCCC(=O)Nc1ccc(C(=O)Nc2nc(CC(=O)OCC)cs2)cc1 | -13.2 |
| O=C(c1cc[n+]([O-])cc1)N1CCCC(N2CCN(c3cccc(C(F)(F)F)c3)CC2)C1 (centres unmarked) | -6.27 |
| Cc1ccccc1NC(=O)c1[nH]cnc1C(=O)NN | 9.21 |
| C=CCC(O)(CC=C)CNC(=O)c1ccc(OC)c(OC2CCN(C(C)=O)CC2)c1 | 14.9 |
| O=C(N/C(=C\c1cccc([N+](=O)[O-])c1)C(=O)N1CCOCC1)c1ccco1 | 14.9 |
| Cc1c(C)n(C)c2ccc(C(=O)N3CCN(c4ccccc4)CC3)cc12 | -5.05 |
| Cc1ccc(S(=O)(=O)N(CC(=O)NCC2CCCO2)Cc2ccc(F)cc2)cc1 (centres unmarked) | -10.6 |
| C[C@@H](C(=O)N[C@@H](Cc1ccccc1)C(=O)O)n1nnc2ccccc2c1=O | 5.17 |
| CC(=O)N1CCN(S(=O)(=O)c2cccc(C(=O)OCN3C(=O)c4ccccc4C3=O)c2)CC1 | -1.95 |
| COc1ccc([C@H](NC(=O)OC(C)(C)C)C(=O)OC(C)(C)C)cc1 | 4.04 |
| CCOc1ccc(-n2nnc3c(=O)n(CC(=O)Nc4cc(C)on4)cnc32)cc1 | 13.3 |
| COc1ccc(N(CC(=O)NCCC2=CCCCC2)S(=O)(=O)c2ccccc2)cc1 | 2.57 |
| COc1ccccc1C(=O)NC(=O)CSc1nc2nc(C)cc(C)n2n1 | 0.704 |
| CC(=O)c1cccc(OCC(=O)Nc2cc(Cl)ccc2-n2cncn2)c1 | -33.5 |
| CCc1ccc(C(=O)NNC(=O)c2ccc(OCC(=O)N3CCOCC3)c(OC)c2)cc1 | 10.6 |
| CCn1ccnc1CN(C)Cc1cn(-c2ccc(C)cc2)nc1-c1cccc(C)c1 | -28.1 |
| COc1cccc(Oc2coc3cc(OC(=O)N4CCOCC4)ccc3c2=O)c1 | -4.27 |

| SMILES | hERG current change (%, negative = inhibition) at 10uM [%] |
| --- | --- |
| CCOC(=O)c1ccc(NC(=O)CSc2nnc(Cc3cccs3)n2C)cc1 | 3.78 |
| Cc1cc(Br)ccc1NC(=O)CN1C(=O)CCC1=O | 13.1 |
| COc1ccc(CNC(=O)CCCc2ccccc2)cc1 | -14 |
| COc1ccc(Cl)c(OC)c1C(=O)NC(=O)Nc1nc(C)nc(C)n1 | 6.8 |
| O=C(Nc1ccc2c(c1)OCCO2)C1CCN(c2nnnn2-c2ccccc2)CC1 | 0.307 |
| CCc1nc2ccc(C(=O)O)cc2nc1CC | 6.59 |
| Nc1c(Cl)cc(-c2cn(CCC(=O)O)c(-c3ccc(Cl)nc3)n2)cc1Cl | 20.4 |
| O=C(NCC(=O)N(c1cccc(F)c1)C(C(=O)NC1CCCC1)c1cccnc1)c1ccco1 (centres unmarked) | -6.84 |
| CCOC(=O)N1CCC(N2C(=O)c3ccccc3C2Nc2cc(OC)c(OC)c(OC)c2)CC1 (centres unmarked) | -17.8 |
| Cc1ccc2nc(Cl)c(/C=N/n3c(C)nnc3C)cc2c1 | 7.28 |
| CC(Sc1ncn[nH]1)C(=O)NCc1ccccc1 (centres unmarked) | 8.18 |
| CCOCc1c(C(=O)NCc2ccccc2CN2CCCC2)oc2ccccc12 | -72 |
| O=C(c1ccc2c(=O)n3c(nc2c1)CCCCC3)N1CCN(c2ccc(Cl)cc2)CC1 | -48 |
| COc1ccc2oc(-c3ccccc3)c(C(=O)O)c2c1 | 32.6 |
| O=C(NCc1cccnc1)C1CCN(S(=O)(=O)c2cccs2)CC1 | -32.8 |
| COc1ccc(-c2c(NC(=O)c3ccco3)n(C)c3ccccc3c2=O)cc1 | -4.88 |
| COc1cc(/C=N/n2cnnc2)ccc1OC(=O)c1ccncc1 | 8 |
| CC1(C)Cc2c(sc(N)c2C#N)C(C)(C)N1 | 11 |
| CC(=O)Nc1ccc(OS(=O)(=O)c2ccc([N+](=O)[O-])cc2)cc1 | -12.1 |

| SMILES | hERG current change (%, negative = inhibition) at 10uM [%] |
| --- | --- |
| Cn1cnnc1SCc1ccc(C(=O)N=Nc2c(O)n(C)c3ccccc23)cc1 | -7.53 |
| Cc1ccc(NC2CCCN(C(=O)c3ccccn3)C2)cc1C (centres unmarked) | 18.4 |
| COc1ccc(CC(=O)Nc2c3c(nn2-c2cccc(C)c2C)CS(=O)C3)cc1OC (centres unmarked) | 18.7 |
| CN(C)S(=O)(=O)c1cccc(NC(=S)NC2CCCCC2)c1 | 6.69 |
| Cc1ccc([N+](=O)[O-])cc1NC(=O)c1cccs1 | 18.4 |
| CCOC(=O)c1c(C)c(C(=O)NCc2ccco2)c(C)n1C | -12.1 |
| Cn1cnc(S(=O)(=O)N2CCN(c3ccc(F)cc3)CC2)c1 | -10.1 |
| Oc1c(Br)cc(Br)cc1Br | 14.1 |
| CN1CCc2nc(NC(=O)COc3ccc(C#N)cc3)sc2C1 | -7.85 |
| O=C(Cn1c(CO)nc2ccccc21)NCc1ccc2c(c1)OCO2 | 5.15 |
| CCCCNC(=O)COC(=O)c1c2c(nc3ccccc13)/C(=C/c1cccs1)CC2 | -1.07 |
| CCCCNC(=O)c1sc2ncnc(N3CCc4ccccc4C3)c2c1C | -50.5 |
| O=C(CCC1CC(=O)Nc2ccccc21)NCc1cccnc1 (centres unmarked) | 3.52 |
| CC(=O)N[C@@H](CC(=O)N[C@H](CCC(=O)O)C(=O)O)C(=O)O | -2.64 |
| C=CCN(C(=O)c1csnn1)C(C(=O)NC1CCCC1)c1ccc(OC)cc1 (centres unmarked) | -6.72 |
| CCCc1ccc(-c2cc(C(=O)NN3CCOCC3)c3ccccc3n2)cc1 | -3.8 |
| CCCN(CCC)C(C(=O)Nc1cccc(OC)c1)c1ccccc1 (centres unmarked) | -2.23 |
| CCC1(C)CC(C(N)=S)CCO1 (centres unmarked) | 27.4 |
